These results are taken from paper PMC12040169 (PLOS Biology, 2025).

Some of the results follow.

For the assay, the system named is T1, C. trachomatis L2/434/Bu expressing GFP (CTL2-GFP).
T1 construct: L2/434/Bu GFP intracellular growth in HeLa cells
Further details: species or system HeLa; C. trachomatis total inclusion area by high-content imaging, normalised to DMSO. Conditions: total inclusion area; 28.5 h, 10 µM; inhibitor. In short, it runs like this:
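Bulk GFP and resorufin signals were read first. Wells were then fixed, stained with Hoechst and imaged to detect GFP inclusions and host nuclei. MICs followed the previously described calculation.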
Turning to `NC(CCc1nc2ccccc2[nH]1)c1nc2ccccc2[nH]1` (centres unmarked) [CBK269970], the “% of control remaining” value stood at 106.612.

Regarding `CCc1ccccc1NC(=O)CN1CCCCC1C(=O)O` (centres unmarked) [CBK287179], the “% of control remaining” value turned out to be 98.7457.

For `OC1(c2cccnc2)CCCC2CN(Cc3c(F)cccc3F)CC21` (centres unmarked) [CBK284512], the “% of control remaining” value is 70.4323.

`O=C(Nc1nccs1)c1cc(=O)c2ccccc2o1` [CBK287570]: the “% of control remaining” value worked out at 94.6354.

As for `Cc1ccc(-c2noc(C(C)NC(=O)C3(Cn4ccnc4)CC3)n2)cc1` (centres unmarked) [CBK307661], the “% of control remaining” value is on record as 76.7991.

With `O=S(=O)(c1ccc2ccccc2c1)N1CCN(C2CCCCCCC2)CC1` [CBK264186G], the “% of control remaining” value was determined as 101.412.

Take `COc1ccccc1CC(=O)N1C2CCC1CC(O)(c1ccco1)C2` (centres unmarked) [CBK284106]: the “% of control remaining” value is given as 107.098.

Consider `Cc1ccc(Cl)c(OC(C)C(=O)N2CCN(c3ccccn3)CC2)c1` (centres unmarked) [CBK304650], for which the “% of control remaining” value is 37.9499.

Consider `CC(=O)c1ccc(-c2nc(-c3cccc(OC(F)(F)F)c3)cnc2N)cc1` [CBK064105], for which the “% of control remaining” value was determined as 74.5907.

As for `O=C(O)COCC(=O)N1C[C@@H]2OCC(=O)N(Cc3ccccc3)[C@@H]2C1` [CBK289652], the “% of control remaining” value worked out at 113.566.

`c1ccc2nc3c(nc2c1)sc1nc2ccccc2n13` [CBK268872]: the “% of control remaining” value was determined as 63.0476.

Consider `N#CCCOc1nc2ccccc2nc1N1CCCC1` [CBK115763], for which the “% of control remaining” value was 81.9039.

In the case of `C[C@@H](Cn1nc2c(cc1=O)CCCC2)NC(=O)c1ccco1` [CBK284559], the “% of control remaining” value was 119.618.

As for `O=C(Nc1ccc2nc(CN3CCOCC3)[nH]c2c1)C1CCCCC1` [CBK305728], the “% of control remaining” value was found to be 66.8903.

Turning to `C/C(=N\N)c1ccc2[nH]c3c(c2c1)CCC/C3=N\N` [CBK261812], the “% of control remaining” value came to 69.8539.

In the case of `COc1cc(OCc2ccccc2)ccc1CN1CCN(Cc2ccc3c(c2)OCO3)CC1` [CBK074768], the “% of control remaining” value is recorded as 73.7514.

On to `O=C(O)/C=C/c1cccc(-c2cnc3[nH]c(=O)n(C4CC4)c3n2)c1` [CBK065091], for which the “% of control remaining” value is recorded as 143.773.

`COc1ccc(C(=O)Nc2cnn(CCCC(=O)O)c2)cc1` [CBK270052]: the “% of control remaining” value is listed as 85.7583.

Turning to `FC(F)(F)c1cccc(-c2cn(-c3ccsc3)nn2)c1` [CBK112937], the “% of control remaining” value turned out to be 79.4113.

As for `O=C(NC[C@H]1C[C@@H]2CC[N@]1C[C@@H]2CN1CCN(c2ccccn2)CC1)Nc1ccccc1` [CBK289114], the “% of control remaining” value was 78.9777.

In the case of `O=C(c1ccc2[nH]nnc2c1)N1CCN(S(=O)(=O)Cc2ccccc2)CC1` [CBK295346], the “% of control remaining” value stood at 120.599.

In the case of `Cc1cc(SCC(C)C)n2ncnc2n1` [CBK261808], the “% of control remaining” value worked out at 99.3763.

`Cc1onc(-c2ccccc2)c1C(=O)NC(=S)Nc1sc2c(c1C#N)CCC2` [CBK267492]: the “% of control remaining” value stood at 106.575.

Turning to `CC(C)(CNC(=O)Cn1cc(C(=O)NC2CCCCC2)ccc1=O)c1cccc(F)c1` [CBK286110], the “% of control remaining” value was 127.34.

Consider `c1ccn(CCOc2nccnc2-c2ccsc2)c1` [CBK106772], for which the “% of control remaining” value was 105.403.

Regarding `COc1ccc(CCC(=O)c2cnc3sc4c(n23)CCCCC4)cc1` [CBK016849], the “% of control remaining” value amounted to 67.9106.

For the compound `c1ccc(C(NCc2cncs2)C2CCCC2)cc1` (centres unmarked) [CBK304812], the “% of control remaining” value is 90.5739.

For the compound `COc1ccc(-c2ccc3ccc(=O)[nH]c3n2)cc1C` [CBK073712], the “% of control remaining” value was 119.655.

Consider `Cc1nc(C)c(C(=O)NCC2CCCOC2)s1` (centres unmarked) [CBK282194], for which the “% of control remaining” value stood at 77.0397.

With `CS(=O)(=O)N1CCc2cc(-c3csc(C4CC4)n3)ccc21` [CBK306347], the “% of control remaining” value is 77.3246.

As to `O=C(CSCc1c(F)cccc1Cl)NCc1ccncc1` [CBK268381], the “% of control remaining” value came out at 117.835.

For `CCCCc1ccc(NC(=N)Nc2nc(C)cc(C)n2)cc1` [CBK262967], the “% of control remaining” value is given as 35.0563.

Take `O=C1OCCN1S(=O)(=O)c1ccc(CN2CCN(Cc3ccc(S(=O)(=O)N4CCOC4=O)cc3)CC2)cc1` [CBK024729]: the “% of control remaining” value turned out to be 103.5.

For the compound `Cc1cn(CC(=O)N2CCC3(CCCNC3)C2)c(=O)[nH]c1=O` (centres unmarked) [CBK153231C], the “% of control remaining” value was determined as 86.0085.

As to `O=C(COc1ccc(F)cc1)Nc1cccc2[nH]ccc12` [CBK159653], the “% of control remaining” value was found to be 100.433.

For the compound `O=C(COc1ccc(F)cc1)N1CCN(c2ncccn2)CC1` [CBK144499], the “% of control remaining” value is listed as 100.644.

With `O=C(COc1cccc2ccccc12)NNC(=O)C1CCCO1` (centres unmarked) [CBK263007], the “% of control remaining” value is recorded as 95.4757.

Consider `O=C(CCN1CCCCC1)NC1Cc2ccccc2C1` [CBK200364], for which the “% of control remaining” value came to 75.4884.

Take `CC(=O)c1c(-c2cccc3ccccc23)nc2n(CCN3CCCCC3)c3ccccc3n12` [CBK278243C]: the “% of control remaining” value was found to be 66.3172.

Regarding `COc1cccc(C(=O)Nc2ccc(-c3noc(-c4ccncc4)n3)cc2)c1` [CBK269892], the “% of control remaining” value was determined as 75.1365.

As for `Cc1c(S(=O)(=O)Nc2ccc(C(O)(C(F)(F)F)C(F)(F)F)cc2)cnn1-c1ccccc1` [CBK062099], the “% of control remaining” value is reported as 108.696.

For the compound `Nc1cccc(-c2ccc(OC3CCNCC3)cc2)c1` [CBK126959T], the “% of control remaining” value stood at 29.0399.

For the compound `CC(=O)Nc1cc(C(=O)Nc2ccc(Br)cc2)ccc1C` [CBK267788], the “% of control remaining” value is 102.654.

With `Cc1ccc(S(=O)(=O)Nc2sccc2C(=O)Nc2ccc(F)cc2)cc1` [CBK042302], the “% of control remaining” value is reported as 52.795.

For the compound `CCC(CO)Nc1nccnc1-c1cccc(F)c1` (centres unmarked) [CBK036775], the “% of control remaining” value is on record as 79.6547.

Regarding `O=c1nc(CN2CCN(c3ncccn3)CC2)[nH]c2ccccc12` [CBK269918], the “% of control remaining” value came to 89.3834.

For the compound `Cc1nn(C)c(Cl)c1S(=O)(=O)Nc1ccc2cn[nH]c2c1` [CBK067141], the “% of control remaining” value was determined as 91.6947.

Turning to `COc1cc(/C=N/NC(=O)CNC(=O)c2ccncc2)ccc1O` [CBK262013], the “% of control remaining” value is 67.096.

For `O=C1CC2CC3CC2C(Sc2ccccc2)C3O1` (centres unmarked) [CBK016225], the “% of control remaining” value was 57.9166.

Consider `N#Cc1cccc(-n2cc(-c3ccc(C(F)(F)F)cc3)nn2)c1` [CBK112957], for which the “% of control remaining” value was 83.898.

Turning to `CCOc1ccc(S(=O)(=O)N2CCCN(Cc3cccc(C(F)(F)F)c3)CC2)c2cccnc12` [CBK062760], the “% of control remaining” value turned out to be 80.15.

Regarding `COc1ccnc(Cn2ncc(N3CCCC3)cc2=O)c1OC` [CBK306672], the “% of control remaining” value came to 59.5443.

In the case of `Cc1ccc(CN(C)C(C)C(=O)NCc2cccs2)cc1` (centres unmarked) [CBK295663], the “% of control remaining” value worked out at 112.818.
